The values below come from US20220175942A1 (OXFORD UNIVERSITY INNOVATION, published 2022).

In this assay the target is T1, P1156_IXORI (Ixodes ricinus, UniProt V5HBW0 29-108).
T1 construct: Tick evasin; also called Evasin
T1 sequence: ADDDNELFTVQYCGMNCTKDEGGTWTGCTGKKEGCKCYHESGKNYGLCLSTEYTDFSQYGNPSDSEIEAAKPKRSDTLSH
As to the kind of experiment: yeast surface display library FACS screen, labelled chemokine (col C: isolated in).

B1: CXCL8_HUMAN (ligand)
chain: not shown
notes: Biotinylated (detected with streptavidin-Alexa647) in yeast display; AlexaFluor 647 labelled (Almac) in thermophoresis
Consider B1, for which the binding result is listed as “binds”.
